# From PubChem BioAssay (Tox21)
# Values joined by “and” are separate entries in the source; they are usually repeats but may differ in a detail not shown here. Identical values can stand only once. The inconclusive results got no clear call from the source; some entries with a clear call stand among them for comparison. For some assays here: Where the call is inconclusive, the potency comes from a doubtful curve fit. The source holds several records for some structures; these can differ, active in one and inactive in another. Active and inactive are the calls of the source. Unless noted, the call rests on the fitted dose curve; in most records, active means well fitted curve in the direction sought with a large enough effect in the repeat runs; inconclusive means weak or mixed curves; inactive means no such curve, though single readings can be large; an effect the other way counts as inactive or inconclusive.
# Legend:
# [1] = biological target: Peroxisome proliferator-activated receptor gamma (Homo sapiens) (UniProt P37231); assay: qHTS assay to identify small molecule agonists of the peroxisome proliferator-activated receptor gamma (PPARg) signaling pathway (AID 743094; active means well fitted activation curve with a large enough effect in the signal ratio in the repeat runs, not every such curve was filed as active; inconclusive means weak or mixed curves, or effect the other way; inactive means no such curve, though single readings can be large or run the other way; the % refers to the signal ratio; further: potency means the concentration at half of the fitted maximal effect; on activation: on the % scale 0 is the no-effect control and ±100 the full control effect); conditions: HEK293H PPARg-UAS-bla, beta-lactamase FRET ratio, 17 h; activation: at 57 µM (top of the series) unless noted
# Sequence of UniProt P37231 (P37231 whole entry, looked up): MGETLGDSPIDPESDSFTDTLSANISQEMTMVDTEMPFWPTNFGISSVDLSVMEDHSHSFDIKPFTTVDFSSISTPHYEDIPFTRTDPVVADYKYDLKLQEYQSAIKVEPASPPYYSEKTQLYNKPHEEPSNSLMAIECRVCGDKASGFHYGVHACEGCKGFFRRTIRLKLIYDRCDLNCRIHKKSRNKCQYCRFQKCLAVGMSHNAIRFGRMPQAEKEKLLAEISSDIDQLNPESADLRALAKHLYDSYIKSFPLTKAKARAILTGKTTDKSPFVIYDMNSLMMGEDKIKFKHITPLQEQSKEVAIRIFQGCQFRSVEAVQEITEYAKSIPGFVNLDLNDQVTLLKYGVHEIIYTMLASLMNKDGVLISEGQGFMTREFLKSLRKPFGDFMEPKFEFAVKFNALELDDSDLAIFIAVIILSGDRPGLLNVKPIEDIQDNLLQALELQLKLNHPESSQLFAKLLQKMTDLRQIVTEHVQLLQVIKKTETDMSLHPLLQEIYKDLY
# In short: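 Following 5 h plating at 37C, PPARg-bla HEK293H cells receive compound or DMSO for 17 h; fluorescence intensity is recorded after LiveBLAzer B/G loading for 1 h at room temperature.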
# [2] = biological target: Peroxisome proliferator-activated receptor gamma (Homo sapiens) (UniProt P37231); assay: qHTS assay to identify small molecule antagonists of the peroxisome proliferator-activated receptor gamma (PPARg) signaling pathway (AID 743191; calls by dose curve; further: nearly all actives have a fitted effect of over 30% in size; further: potency means the concentration at half of the fitted maximal effect; on ratio activity, negative = inhibition: on the % scale 0 is the no-effect control and ±100 the full control effect); conditions: HEK293H PPARg-UAS-bla, beta-lactamase ratio, antagonist, 17 h
# In short: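 Beta-lactamase reporter under UAS control in HEK293H PPARg-bla cells; compound treatment 17 h at 37C. Read-out: fluorescence intensity after 1 h room-temperature incubation with LiveBLAzer B/G FRET substrate.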
# [3] = qHTS assay for small molecule activators of the heat shock response signaling pathway (AID 743210; active means well fitted activation curve with a large enough effect in the signal ratio in the repeat runs, with a control signal flat, not every such curve was filed as active; inconclusive means weak or mixed curves; the % refers to the signal ratio; further: potency means the concentration at half of the fitted maximal effect;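 on activation: HeLa cells with beta-lactamase reporter driven by heat shock elements; on the % scale 0 is the no-effect control and ±100 the full control effect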); conditions: HeLa HSE-bla reporter, beta-lactamase ratio, 5 h; activation: at 62.6 µM (top of the series)
# In short: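 HeLa HSE-bla cells, overnight plating; cpd in DMSO 5 h, 37 C; LiveBLAzer B/G FRET substrate 2.5 h RT; fluorescence intensity read.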
# [4] = biological target: Bile acid receptor (Homo sapiens) (UniProt Q96RI1); assay: qHTS assay to identify small molecule antagonists of the farnesoid-X-receptor (FXR) signaling pathway (AID 743217; active means well fitted inhibition curve with a large enough effect in the signal ratio in the repeat runs, not every such curve was filed as active; inconclusive means weak or mixed curves, or effect the other way; inactive means no such curve, though single readings can be large or run the other way; the % refers to the signal ratio; further: potency means the concentration at half of the fitted maximal effect); conditions: HEK293T FXR-UAS-bla, beta-lactamase ratio, CDCA-stimulated, 16 h; activity change, negative = inhibition: at 62.6 µM (top of the series) unless noted
# Sequence of UniProt Q96RI1 (Q96RI1 whole entry, looked up): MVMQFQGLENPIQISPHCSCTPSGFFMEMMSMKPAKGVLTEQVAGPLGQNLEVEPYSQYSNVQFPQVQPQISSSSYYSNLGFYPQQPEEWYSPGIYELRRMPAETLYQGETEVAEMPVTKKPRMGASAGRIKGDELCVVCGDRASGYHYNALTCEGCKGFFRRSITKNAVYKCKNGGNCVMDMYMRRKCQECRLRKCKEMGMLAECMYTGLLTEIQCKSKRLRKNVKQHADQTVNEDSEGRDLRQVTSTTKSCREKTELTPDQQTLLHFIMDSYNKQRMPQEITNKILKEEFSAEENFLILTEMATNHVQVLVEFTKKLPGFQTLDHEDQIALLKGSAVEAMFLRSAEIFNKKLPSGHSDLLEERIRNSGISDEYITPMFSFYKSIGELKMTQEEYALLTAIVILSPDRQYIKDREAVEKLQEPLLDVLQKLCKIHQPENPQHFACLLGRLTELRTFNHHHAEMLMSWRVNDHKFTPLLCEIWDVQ
# In short: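 In this cell-based antagonist screen, inhibition of CDCA-driven (50 uM final) UAS-beta-lactamase expression in HEK 293T cells was measured by FRET fluorescence following 16 h compound exposure at 37 °C.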
# [5] = biological target: Vitamin D3 receptor (Homo sapiens) (UniProt P11473); assay: qHTS assay to identify small molecule antagonists of the vitamin D receptor (VDR) signaling pathway (AID 743223; active means well fitted inhibition curve with a large enough effect in the signal ratio in the repeat runs, not every such curve was filed as active; inconclusive means weak or mixed curves, or effect the other way; inactive means no such curve, though single readings can be large or run the other way; the % refers to the signal ratio; further: potency means the concentration at half of the fitted maximal effect); conditions: VDR-UAS-bla HEK293T, beta-lactamase FRET ratio, 16 h; activity change, negative = inhibition: at 61 µM (top of the series) unless noted
# Sequence of UniProt P11473 (P11473 whole entry, looked up): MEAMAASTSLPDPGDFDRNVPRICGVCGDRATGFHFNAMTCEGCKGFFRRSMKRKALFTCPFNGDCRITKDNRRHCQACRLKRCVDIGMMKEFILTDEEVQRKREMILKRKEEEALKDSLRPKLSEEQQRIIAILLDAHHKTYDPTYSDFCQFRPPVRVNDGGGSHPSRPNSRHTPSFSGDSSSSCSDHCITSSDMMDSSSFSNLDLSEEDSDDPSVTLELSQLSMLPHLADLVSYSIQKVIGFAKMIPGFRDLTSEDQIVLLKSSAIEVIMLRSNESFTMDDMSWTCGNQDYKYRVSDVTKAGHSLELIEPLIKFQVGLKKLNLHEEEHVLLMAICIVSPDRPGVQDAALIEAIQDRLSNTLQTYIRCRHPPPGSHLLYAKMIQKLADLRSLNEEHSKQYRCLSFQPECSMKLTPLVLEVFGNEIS
# In short: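 VDR-bla cells were treated with compound plus 3 nM final 1alpha,25-dihydroxyvitamin D3 for 16 h at 37C. Beta-lactamase reporter read by B/G FRET substrate fluorescence after 2 h at room temperature. qHTS format.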
# [6] = qHTS assay to identify small molecule antagonists of the peroxisome proliferator-activated receptor gamma (PPARg) signaling pathway - cell viability counter screen (AID 743194); conditions: PPARg-bla HEK293H viability, CellTiter-Glo luminescence, 17 h, co-treated with 50 nM rosiglitazone; activity change, negative = cytotoxicity: at 62.6 µM (top of the series); further: nearly all actives have a fitted effect of over 55% in size; further: potency means the concentration at half of the fitted maximal effect
# In short: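 Viability was measured as CellTiter-Glo luminescence in GeneBLAzer PPARg UAS-bla HEK293H cells. These cells had been exposed 17 h at 37 C to compounds together with rosiglitazone at 50 nM final, with the beta-lactamase readout taken in the same wells.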
# [7] = qHTS assay for small molecule agonists of the antioxidant response element (ARE) signaling pathway (AID 743202; active means well fitted activation curve with a large enough effect in the signal ratio in the repeat runs, not every such curve was filed as active; inconclusive means weak or mixed curves, or effect the other way; inactive means no such curve, though single readings can be large or run the other way; the % refers to the signal ratio; further: potency means the concentration at half of the fitted maximal effect); conditions: HepG2 ARE-bla reporter, beta-lactamase FRET, 16 h; activation: at 73.3 µM (top of the series) unless noted
# In short: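 Quantitative high-throughput format in HepG2 cells bearing an integrated ARE-beta-lactamase reporter. Compound exposure lasted 16 h at 37 C, and fluorescence was read 2 h after adding LiveBLAzer B/G substrate at room temperature.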
# [8] = qHTS assay for small molecule activators of the heat shock response signaling pathway - cell viability counter screen (AID 743209); conditions: HSE-bla HeLa viability, CellTiter-Glo luminescence, 5 h; activity change, negative = cytotoxicity: at 62.6 µM (top of the series); further: nearly all actives have a fitted effect of over 50% in size; further: potency means the concentration at half of the fitted maximal effect
# In short: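 Counter screen for cytotoxicity in HeLa HSE-bla reporter cells. Treatment was 5 h at 37 C; viability was detected by luminescent ATP assay (CellTiter-Glo) in the same wells as the beta-lactamase read.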
# [9] = qHTS assay for small molecule agonists of the antioxidant response element (ARE) signaling pathway - cell viability counter screen (AID 743203; calls by dose curve; further: potency means the concentration at half of the fitted maximal effect; nearly all actives have a fitted effect of over 55% in size); conditions: ARE-bla HepG2 viability, CellTiter-Glo luminescence, 16 h; viability change, negative = cytotoxic: at 73.3 µM (top of the series)
# In short: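 Compounds in DMSO were pinned onto ARE-bla HepG2 cells plated 5 hrs earlier at 2,000 cells/well. Sixteen hours later at 37C/5% CO2, CellTiter-Glo was added and luminescence measured after 30 min at room temperature.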
# [10] = biological target: Peroxisome proliferator-activated receptor delta (Homo sapiens) (UniProt Q03181); assay: qHTS assay to identify small molecule agonists of the peroxisome proliferator-activated receptor delta (PPARd) signaling pathway (AID 743212; calls by dose curve; further: on the % scale 0 is the no-effect control and ±100 the full control effect); conditions: HEK293H PPARd-UAS-bla, beta-lactamase FRET ratio, 17 h; activation: at 62.6 µM (top of the series) unless noted
# Sequence of UniProt Q03181 (Q03181 whole entry, looked up): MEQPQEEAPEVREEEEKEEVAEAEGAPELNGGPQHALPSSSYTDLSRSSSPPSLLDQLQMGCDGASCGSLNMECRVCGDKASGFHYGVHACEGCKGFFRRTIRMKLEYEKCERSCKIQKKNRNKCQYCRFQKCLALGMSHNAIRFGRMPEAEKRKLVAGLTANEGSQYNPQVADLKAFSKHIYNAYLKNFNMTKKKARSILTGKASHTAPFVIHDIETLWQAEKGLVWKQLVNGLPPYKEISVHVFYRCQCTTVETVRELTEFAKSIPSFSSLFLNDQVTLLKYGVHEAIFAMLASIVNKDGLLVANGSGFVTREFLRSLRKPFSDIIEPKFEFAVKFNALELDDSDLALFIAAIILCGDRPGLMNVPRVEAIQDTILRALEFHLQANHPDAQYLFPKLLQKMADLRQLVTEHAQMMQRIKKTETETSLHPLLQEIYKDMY
# In short: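 HEK293H PPARd-bla cells; 5 h preincubation 37 C/5% CO2; compound (DMSO) 37 C; LiveBLAzer B/G FRET substrate 2 h RT; fluorescence intensity.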
# [11] = qHTS assay to identify small molecule agonists of the farnesoid-X-receptor (FXR) signaling pathway - cell viability counter screen (AID 743218); conditions: FXR-bla HEK293T viability, CellTiter-Glo luminescence, 16 h; viability change, negative = cytotoxic: at 62.6 µM (top of the series) unless noted; further: nearly all actives have a fitted effect of over 45% in size; further: potency means the concentration at half of the fitted maximal effect
# In short: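 After 16 h at 37 C with test compounds, FXR-bla HEK 293T cells were given LiveBLAzer B/G substrate for 2 h at RT and then CellTiter-Glo; luminescence was taken after 30 min.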
# [12] = biological target: Bile acid receptor (Homo sapiens) (UniProt Q96RI1); assay: qHTS assay to identify small molecule agonists of the farnesoid-X-receptor (FXR) signaling pathway (AID 743220; active means well fitted activation curve with a large enough effect in the signal ratio in the repeat runs, not every such curve was filed as active; inconclusive means weak or mixed curves, or effect the other way; the % refers to the signal ratio; further: potency means the concentration at half of the fitted maximal effect); conditions: HEK293T FXR-UAS-bla, beta-lactamase FRET ratio, 16 h; activation: at 62.6 µM (top of the series) unless noted
# In short: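 Beta-lactamase reporter under UAS control in GeneBLAzer FXR HEK 293T cells (5000/well) measured with LiveBLAzer FRET substrate after 2 h at room temperature. Compound exposure lasted 16 h at 37C.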
# [13] = qHTS assay to identify small molecule antagonists of the farnesoid-X-receptor (FXR) signaling pathway - cell viability counter screen (AID 743221; active means well fitted cell-killing curve with a large enough effect in the repeat runs, not every such curve was filed as active; inconclusive means weak or mixed curves, or effect the other way; inactive means no such curve, though single readings can be large or run the other way; further: nearly all actives have a fitted effect of over 50% in size; further: potency means the concentration at half of the fitted maximal effect); conditions: FXR-bla HEK293T viability, CellTiter-Glo luminescence, 16 h; activity change, negative = cytotoxicity: at 62.6 µM (top of the series)
# In short: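 GeneBLAzer FXR-UAS-bla HEK 293T cells, compound plus chenodeoxycholic acid (50 uM final), 16 h at 37 C. CellTiter-Glo added to the same wells after the beta-lactamase read; luminescence read after 30 min at room temperature as viability.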
# [14] = qHTS assay to identify small molecule antagonists of the peroxisome proliferator-activated receptor delta (PPARd) signaling pathway - cell viability counter screen (AID 743213); conditions: PPARd-bla HEK293H viability, CellTiter-Glo luminescence, 17 h; viability change, negative = cytotoxic: at 62 µM (top of the series) unless noted; further: nearly all actives have a fitted effect of over 50% in size; further: potency means the concentration at half of the fitted maximal effect
# In short: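 Cytotoxicity counter screen: CellTiter-Glo luminescence read 30 min after addition, in the same wells as the reporter assay. There, PPARd UAS-bla HEK293H cells (3000/well) were treated 17 h at 37 C with compound and 300 nM L165041.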
# [15] = qHTS assay to identify small molecule that activate the aryl hydrocarbon receptor (AhR) signaling pathway - cell viability counter screen (AID 743086);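 further: HepG2 liver cells carrying the AhR DRE luciferase reporter; on the % scale 0 is the no-effect control and ±100 the full control effect; nearly all actives have a fitted effect of over 45% in size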
# In short: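 Cytotoxicity counter screen: CellTiter-Fluor signal (30 min, 37 C) in 4000 HepG2 cells/well carrying the DRE-luciferase reporter, following 24 h compound exposure at 37 C.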
# [16] = qHTS assay to identify small molecule agonists of the peroxisome proliferator-activated receptor delta (PPARd) signaling pathway - cell viability counter screen (AID 743211); conditions: PPARd-bla HEK293H viability, CellTiter-Glo luminescence, 17 h; activity change, negative = cytotoxicity: at 62.6 µM (top of the series); further: nearly all actives have a fitted effect of over 55% in size; further: potency means the concentration at half of the fitted maximal effect
# In short: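 PPARd-bla HEK293H cells (3000/well) were pre-incubated 5 h at 37 C, then exposed to compound for 17 h at 37 C. After 2 h with LiveBLAzer substrate, CellTiter-Glo was added to the same wells; luminescence read after 30 min at room temperature.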
# [17] = biological target: Peroxisome proliferator-activated receptor delta (Homo sapiens) (UniProt Q03181); assay: qHTS assay to identify small molecule antagonists of the peroxisome proliferator-activated receptor delta (PPARd) signaling pathway (AID 743215; active means well fitted inhibition curve with a large enough effect in the signal ratio in the repeat runs, not every such curve was filed as active; inconclusive means weak or mixed curves, or effect the other way; inactive means no such curve, though single readings can be large or run the other way; the % refers to the signal ratio;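 further: cells stimulated with agonist L165041 at 300 nM final during compound exposure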; further: potency means the concentration at half of the fitted maximal effect); conditions: HEK293H PPARd-UAS-bla, beta-lactamase FRET ratio, antagonist, 17 h
# In short: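 With L165041 present at 300 nM final, compounds were incubated 17 h at 37 C on PPARd UAS-bla HEK293H cells. A FRET-based beta-lactamase substrate was then applied for 2 h at room temperature and fluorescence intensity recorded.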
# [18] = biological target: Vitamin D3 receptor (Homo sapiens) (UniProt P11473); assay: qHTS assay to identify small molecule agonists of the vitamin D receptor (VDR) signaling pathway (AID 743222; calls by dose curve; further: potency means the concentration at half of the fitted maximal effect); conditions: HEK293T VDR-UAS-bla, beta-lactamase FRET ratio, 16 h; activation: at 63.5 µM (top of the series) unless noted
# In short: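 VDR-bla cells were seeded, left 4 h, treated with compounds in DMSO for 16 h, incubated 2 h at RT with B/G FRET substrate, and read for fluorescence.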
# [19] = ratio activity, negative = inhibition: at 62.6 µM (top of the series) unless noted
# [20] = ratio activity, negative = inhibition: at 62 µM (top of the series) unless noted
# Tags describe the fitted curve by direction and shape or compound fluorescence and quenching.
smiles,measurement,setting,value
COC(C)COC(C)COC(C)CO (centres undefined),Potency,[1],inactive
same,"ratio activity, negative = inhibition",[2]; at 62.6 µM (top of the series),inactive: 2.85%
same,"ratio activity, negative = inhibition",[2]; [19],inconclusive: -4.39%
same,Potency,[3],inactive
same,Potency,[4],inactive
same,Potency,[5],inactive
O=CCCCC=O,Potency,[1],active: 53 µM and inconclusive: 54.9 µM [activator]
same,Potency,[2]; [19],"inconclusive: 49 µM [activator, single point]"
same,"ratio activity, negative = inhibition",[2]; [19],inconclusive: -15.8%
same,Potency,[6],"inconclusive: 27.5 µM [cytotoxic, full curve, poor fit]"
same,Potency,[7],active: 52.5 µM and inactive
same,Potency,[8],active: 47.2 µM
same,Potency,[5],inactive
CCCCCCc1ccc(N)cc1,activation,[1],inconclusive: -16.5%
same,"ratio activity, negative = inhibition",[2]; [19],inconclusive: -13.2%
same,Potency,[7],"inconclusive: 54.5 µM [falling, partial curve, poor fit]"
same,Potency,[9],"inconclusive: 27.3 µM [cytotoxic, partial curve]"
same,activation,[10],inconclusive: 1.06%
same,Potency,[11],"inconclusive: 5.49 µM [cytotoxic, partial curve, poor fit]"
same,Potency,[12],"inconclusive: 54.9 µM [rising, single point]"
same,Potency,[13],inactive
O=C(O)c1ccc(Cl)c(Cl)c1,Potency,[1],inactive
same,"ratio activity, negative = inhibition",[2]; [19],inconclusive: -1.16%
same,activation,[7],inconclusive: 13.2%
same,Potency,[8],inactive
same,Potency,[14],inactive
same,"activity change, negative = inhibition",[4],inconclusive: 11.1%
same,Potency,[5],inactive
CCCC(=O)O,Potency,[1],inactive
same,"ratio activity, negative = inhibition",[2]; at 62.6 µM (top of the series),inconclusive: 14.8%
same,"ratio activity, negative = inhibition",[2]; at 81.1 µM (top of the series),inconclusive: 2.4%
same,Potency,[10],inactive
same,Potency,[14],inactive
same,"activity change, negative = inhibition",[5],inconclusive: -0.565%
C[C@H](CCC(=O)O)[C@H]1CC[C@H]2[C@@H]3CC[C@@H]4C[C@H](O)CC[C@]4(C)[C@H]3CC[C@]12C,Potency,[1],"inconclusive: 24.5 µM [rising, single point]"
same,activation,[1],inconclusive: 11.5%
same,Potency,[8],"inconclusive: 54.7 µM [cytotoxic, single point] and inconclusive: 61.7 µM [cytotoxic, single point]"
same,Potency,[3],inconclusive: 43.5 µM and inconclusive: 61.7 µM
same,Potency,[14],"inconclusive: 1.95 µM [cytotoxic, partial curve]"
same,"viability change, negative = cytotoxic",[14],inconclusive: 10.2% [cytotoxic]
same,Potency,[11],"inconclusive: 54.7 µM [cytotoxic, partial curve, poor fit] and inconclusive: 54.9 µM [cytotoxic, single point]"
same,Potency,[13],active: 43.6 µM
CCOc1ccc(N)c([N+](=O)[O-])c1,Potency,[15],inactive
same,activation,[7],inconclusive: 0.853%
same,Potency,[11],inactive
same,Potency,[5],inactive
CCC(C)CO (centres undefined),activation,[1],inconclusive: -19.6%
same,Potency,[2]; [19],inactive
same,Potency,[6],inactive
same,Potency,[9],"inconclusive: 0.969 µM [cytotoxic, full curve, poor fit]"
same,Potency,[16],inactive
same,"ratio activity, negative = inhibition",[17]; at 80.4 µM (top of the series),inactive: 1.73%
same,"ratio activity, negative = inhibition",[17]; [20],inconclusive: -21.8%
same,Potency,[13],"inconclusive: 21.9 µM [rising, single point]"
same,"activity change, negative = inhibition",[5],inconclusive: -3%
Nc1cc(Cl)c(O)c(Cl)c1,Potency,[1],inconclusive: 38.9 µM [activator]
same,Potency,[2]; [19],"inconclusive: 38.9 µM [fluorescent, partial curve, poor fit]"
same,Potency,[6],"inconclusive: 61.6 µM [cytotoxic, single point]"
same,Potency,[7],"inconclusive: 15.4 µM [rising, full curve]"
same,Potency,[3],"inconclusive: 54.9 µM [activator, single point]"
same,activation,[10],inconclusive: 7.45%
same,Potency,[17]; [20],"inconclusive: 19.5 µM [activator, partial curve, poor fit]"
same,activation,[18],inconclusive: 6.84%
same,Potency,[5],"inconclusive: 77.6 µM [fluorescent, single point]"
O=C(O)C1(C(=O)Nc2ccc(Cl)cc2Cl)CC1,Potency,[1],"inconclusive: 15.5 µM [rising, partial curve, poor fit]"
same,Potency,[2]; [19],"inconclusive: 21.9 µM [rising, partial curve]"
same,Potency,[6],"inconclusive: 0.49 µM [rising, full curve, poor fit]"
same,Potency,[16],"inconclusive: 24.5 µM [cytotoxic, partial curve, poor fit]"
same,activation,[10],inconclusive: 2.17%
same,Potency,[14],"inconclusive: 0.347 µM [cytotoxic, full curve, poor fit]"
same,Potency,[4],"inconclusive: 61.6 µM [rising, partial curve, poor fit]"
same,Potency,[11],"inconclusive: 0.195 µM [rising, full curve, poor fit]"
same,Potency,[18],"inconclusive: 1.74 µM [fluorescent, full curve]"
same,"activity change, negative = inhibition",[5],inconclusive: 16.4% [fluorescent]
